The campaign covered roughly 310,000 compounds. About 14,000 (4.5%) showed an effect of 50% or more. The effect is printed as a negative number. The list shows a part of the results.
These compounds were tested against human ether-à-go-go-related gene (hERG) potassium channel (human, UniProt Q12809) (assay: primary screen, population patch clamp on CHO cells stably expressing hERG).
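Further: peak tail current of the secondary pulse compared with the same well before compound.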

human ether-à-go-go-related gene (hERG) potassium channel, sequence (Q12809 whole entry, looked up): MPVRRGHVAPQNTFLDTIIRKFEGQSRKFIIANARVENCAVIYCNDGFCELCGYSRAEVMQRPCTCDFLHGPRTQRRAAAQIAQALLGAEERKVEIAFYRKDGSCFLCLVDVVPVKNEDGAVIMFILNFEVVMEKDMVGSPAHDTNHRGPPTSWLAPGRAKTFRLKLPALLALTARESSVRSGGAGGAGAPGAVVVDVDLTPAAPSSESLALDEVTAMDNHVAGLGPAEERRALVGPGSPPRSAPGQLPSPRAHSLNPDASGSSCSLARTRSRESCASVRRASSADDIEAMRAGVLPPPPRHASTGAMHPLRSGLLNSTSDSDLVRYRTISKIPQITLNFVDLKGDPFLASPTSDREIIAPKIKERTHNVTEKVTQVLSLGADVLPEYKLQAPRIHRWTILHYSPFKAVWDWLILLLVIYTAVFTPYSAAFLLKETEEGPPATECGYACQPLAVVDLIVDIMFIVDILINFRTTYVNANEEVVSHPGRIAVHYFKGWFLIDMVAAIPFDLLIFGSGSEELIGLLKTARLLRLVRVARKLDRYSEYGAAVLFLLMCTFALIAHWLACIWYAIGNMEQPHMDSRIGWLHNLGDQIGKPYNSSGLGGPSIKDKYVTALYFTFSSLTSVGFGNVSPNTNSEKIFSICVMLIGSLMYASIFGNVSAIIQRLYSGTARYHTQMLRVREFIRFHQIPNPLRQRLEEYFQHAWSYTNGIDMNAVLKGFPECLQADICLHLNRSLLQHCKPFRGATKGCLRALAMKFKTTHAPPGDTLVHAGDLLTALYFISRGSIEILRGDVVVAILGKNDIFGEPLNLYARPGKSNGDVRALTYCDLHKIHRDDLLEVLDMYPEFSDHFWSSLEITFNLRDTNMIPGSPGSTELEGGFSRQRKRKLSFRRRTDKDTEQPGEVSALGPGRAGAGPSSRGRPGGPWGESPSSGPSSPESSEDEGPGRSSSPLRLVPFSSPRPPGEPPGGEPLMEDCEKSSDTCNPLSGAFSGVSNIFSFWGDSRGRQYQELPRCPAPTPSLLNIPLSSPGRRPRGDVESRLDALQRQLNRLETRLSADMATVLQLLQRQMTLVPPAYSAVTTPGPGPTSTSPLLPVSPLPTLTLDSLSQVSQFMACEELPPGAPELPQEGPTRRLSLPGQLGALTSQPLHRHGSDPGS

SMILES	hERG current change (%, negative = inhibition) at 10uM [%]
Cc1ccc(C(C)C)cc1S(=O)(=O)NCc1ccccn1	2.86
C=CCSC1=N/C(=C\c2sccc2C)C(=O)S1	-1.99
Cc1ccc(-c2c(C(=O)N(C)Cc3ccccc3)oc(=O)c3ccccc23)cc1	-52.5
CCCCN(CC)CCCNC(=O)c1cn(CC(C)C)c(=O)c2c1c1ccccc1n2C	-34.5
Cc1nnc(SCC(=O)c2ccc(Cl)cc2)n(N)c1=O	1.4
CCOc1cc2c(cc1OCC)-n1cccc1C(c1cc(OC)ccc1F)NC2.Cl (centres unmarked)	-0.962
O=C(Cc1ccccc1)N1CCN(c2ncccn2)CC1	1.36
CCCCN(C(=O)C1=COCCO1)c1c(N)n(Cc2ccccc2)c(=O)[nH]c1=O	8.72
Cc1nc2nc[nH]n2c(=O)c1NS(C)(=O)=O	4.48
Cn1cnnc1SCC(=O)N1N=C2/C(=C/c3ccco3)CCCC2C1c1ccco1 (centres unmarked)	-25.6
Cc1ccc(C(=O)OCc2ccc3c(c2)OCO3)cc1S(=O)(=O)N1CCCCC1	5.84
CC(=O)Nc1ccc(NC(=O)c2ccc(COc3ccccc3)cc2)cc1	-2.88
CSc1ncc(Cl)c(C(=O)Nc2cccc3ccccc23)n1	5.27
COC(=O)c1ccc(CNCC(O)COc2ccc(-c3ccccc3)cc2)cc1 (centres unmarked)	13.1
O=C(COc1ccc([N+](=O)[O-])cc1Cl)NCC1CCCO1 (centres unmarked)	-14.9
CC(NC=C1C(=O)OC(C)(C)OC1=O)C(=O)O (centres unmarked)	12.1
COc1cc(C(=O)Nc2c(C(=O)O)[nH]c3ccccc23)cc(OC)c1OC	16.2
COc1ccc(-c2cc(C(N)=O)nc(N3CCCCCC3)n2)cc1	14.7
CCNc1nc(C)c2cc(Br)c(=O)n(CC)c2n1	17.1
CN1C(=O)C2(c3ccccc31)C1CCCC=C1C(C#N)=C(N)C2(C#N)C#N (centres unmarked)	5.52
Cn1ncc(Cl)c1C(=O)NCc1ccc2c(c1)OCO2	6.44
CCOc1ccc(C(=O)N/N=C/c2cc(Cl)ccc2[N+](=O)[O-])cc1	-11.6
O=C(Cn1c(=O)c2cccn2c2ccccc21)NCCCN1CCCCC1	3.5

SMILES	hERG current change (%, negative = inhibition) at 10uM [%]
Cc1ccc(NC(=S)N2CCC(NC(=O)c3ccc(F)cc3)CC2)cc1C	9.31
O=C(CCn1c(=S)[nH]c2ccccc2c1=O)N1CCOCC1	-5.37
CCN(CC(=O)Nc1c(F)cccc1F)C(=O)CN1C(=O)NC2(CCCC2)C1=O	22.5
CCN1CCN(c2ncnc3ccc(Br)cc23)CC1	-7.57
N#CCCN/N=C(\Cc1nc2ccccc2[nH]1)c1ccccc1	8.11
CCOC(=O)N1CCC(Nc2c(NCCCN(CC)Cc3ccccc3)c(=O)c2=O)CC1	6.06
CCOc1ccccc1C(=O)NN1C(=O)C2CCCCC2C1=O (centres unmarked)	13.3
COc1ccc(/C=C/C(=O)NC(=S)Nc2ccc(C(=O)O)cc2)cc1	18.9
O=C(c1cc(=O)[nH]c2ccccc12)N1CCc2ccccc2C1	11
CC(C)=CCc1c(O)ccc2c1OC(c1ccc(O)c(O)c1)CC2=O (centres unmarked)	9.78
COc1ccc(CCNC(=O)COC(=O)c2cnccn2)cc1	2.09
CCN1CCN(CCCNC(=O)CCc2nc(-c3ccc(OC)cc3)no2)CC1	-2.35
Cc1ccccc1CS(=O)(=O)CCC(=O)NCc1ccc(F)cc1Cl	-1.18
CCOC(=O)N1CCC(NC(=O)c2cc3sccc3n2CC)CC1	2.28
O=C(COC(=O)CCNS(=O)(=O)c1cccc(C(F)(F)F)c1)NC(=O)NC1CCCCC1	-14.4
CCOC(C(=O)OCCCN(CC)CC)(c1ccccc1)c1ccccc1.Cl	-11.5
Cc1csc(Nc2ccccc2)[n+]1C.[Br-]	6.99
O=C(CSCc1ccccc1)NC1CCSC1=O (centres unmarked)	-7.15
CCOC(=O)c1c(C)[nH]c(C)c1S(=O)(=O)NCC1CCN(Cc2ccccc2F)CC1	-4.61
CCOC(=O)N1CCC(NC(=O)CCc2nc(-c3ccccc3F)no2)CC1	13
COc1cccc(CC(NC(C)=O)C(=O)NC2CCN(S(=O)(=O)c3ccc(NC(C)=O)cc3)CC2)c1OC (centres unmarked)	20.5
CCCC(=O)Oc1ccc(C2NC(=O)c3ccccc3O2)cc1 (centres unmarked)	17.8
O=C(NCCc1ccccn1)c1cccc(S(=O)(=O)N2CCc3ccccc32)c1	-25

SMILES	hERG current change (%, negative = inhibition) at 10uM [%]
CC(=O)c1ccc(N(C)C)cc1	0.133
Cc1ccccc1-n1c(O)c(C=Nc2ccc3c(c2)OCO3)c(=O)[nH]c1=O	1.75
Cn1nc(C(=O)NCc2ccccc2)c2ccccc2c1=O	16.6
Cc1cc(N2CCN(C)CC2)nc2ccc(NC(=S)N3CCOCC3)cc12	-15.4
Nc1nc(SCC(=O)N2N=C(c3ccc(Cl)cc3)CC2c2ccco2)n[nH]1 (centres unmarked)	-5.6
COCCNc1nc(-n2nc(C)cc2C)nc2sc3c(c12)CCCC3	-25.2
Clc1ccc(OCc2nnc(SCc3nnc(-c4ccccc4)o3)o2)c(Cl)c1	2.78
NC(=O)c1nsc(C(=O)N(c2ccccc2)C(C(=O)NCC2CCCO2)c2ccc(F)cc2)c1N (centres unmarked)	18.4
O=C(NCCCNC(=O)c1ccccn1)c1ccccn1	10.7
CCOc1ccc(S(=O)(=O)NCCC(=O)Nc2ccncc2)cc1	-21
Cc1ccc(-n2c(=O)c3sccc3n(Cc3cc(=O)n4ccccc4n3)c2=O)cc1	-45.6
Cc1c(/C=N\NC(=O)C2COc3ccccc3O2)c2ccccc2n1C (centres unmarked)	15.5
O=C(O)CC1(CC(=O)Nc2cc3ccccc3cn2)CCCCC1	2.02
COc1ccc(CNC(=O)C(c2ccco2)N(C(=O)c2snc(C(N)=O)c2N)c2ccccc2OC)cc1 (centres unmarked)	-43.3
COc1ccc2c(c1)N(S(=O)(=O)c1ccccc1)CCC2=O	-1.71
O=C(NCc1ccco1)c1cc(C(=O)C2CC2)c[nH]1	4.05
O=C(CCCN=C1NS(=O)(=O)c2ccccc21)OCC(=O)c1ccc(F)c(F)c1	-37
O=C1CC(=O)C(n2cncn2)C(c2ccc(Cl)cc2)C1 (centres unmarked)	20.3
CCN(C(=O)c1ccc2c(=O)n3c(nc2c1)CCCCC3)c1cc(OC)ccc1OC	-2.39
Cn1c(NC(=O)C2CC2)cc(=O)n(C)c1=O	-11.6
CC(C)c1cc(C(=O)NNC(=S)NCc2ccco2)c(O)c(C(C)C)c1	7.37
CCOC(=O)c1c(S(=O)(=O)NCC(=O)Nc2ccccc2)c(C)n(C)c1C	6.22
Cn1c(CO)cnc1SCc1ccc(Cl)cc1	0.94

SMILES	hERG current change (%, negative = inhibition) at 10uM [%]
O=C1CCCN1c1ccc(CNS(=O)(=O)c2ccc(F)cc2)cc1	9.5
COc1ccc2sc3c(=O)[nH]c4ccccc4c3c2c1	-0.316
O=C(O)CCC(=O)Nc1ccc(NC(=O)c2ccc(Cl)cc2Cl)c(Cl)c1	21.6
CCOc1cc(-c2c(C#N)c(N)nc3c2CCc2ccccc2-3)ccc1O	12.7
Cc1ccc(/C=C2\CCC(C3CCCC3)C2=O)cc1 (centres unmarked)	4.78
CCOc1ccc(N(C)S(=O)(=O)c2cc(-c3cc(C)no3)ccc2C(C)C)cc1	4.4
FC(F)(F)c1ccc2c(c1)NP(=S)(N1CCOCC1)c1nccn1-2 (centres unmarked)	-23.3
COc1ccc(OC)c(/C=C/C(=O)OCC(=O)Nc2ccc(Cl)c(S(=O)(=O)N(C)C)c2)c1	26.4
N#CCC(=O)N/N=C\c1ccccc1OC/C=C/c1ccccc1	15.1
COc1ccc(OCC(=O)N/N=C(\CCC(=O)O)c2cccs2)cc1	15.1
NC(=O)CC(NC(=O)c1cccc(Br)c1)c1ccc(NC2CCN(Cc3ccccc3)CC2)c([N+](=O)[O-])c1 (centres unmarked)	6.8
CC(C)=Cc1oc2ccc([N+](=O)[O-])cc2c1N1CCOCC1	16.6
CSCCC(NC(=O)c1ccc([N+](=O)[O-])cc1Cl)C(=O)OCC(=O)NC1CCCC(C)C1C (centres unmarked)	-38.3
CCOc1ccc(NC(=S)NC(C)C(c2ccccc2)N2CCN(C)CC2)cc1 (centres unmarked)	-58.5
CC1CN(S(=O)(=O)c2ccccc2)C(C)N1C(=O)N1CCOCC1 (centres unmarked)	7.79
Cc1cccc(NC(=O)CN(C)C(=O)C2CCCC2)c1C	8.86
Cc1cc(NC(=O)CSc2nc3c(C)c(C)ccc3cc2C)no1	-44.6
CCC(=NCCc1c(C)[nH]c2ccc(OC(F)(F)F)cc12)C1=C(O)CC(c2ccccc2)CC1=O (centres unmarked)	4.75
CCOC(=O)CCCc1ccc(/C(C)=N/NC(N)=S)cc1	-7.3
C=CCNc1c2c(nc3ncnn13)CC(C)CC2 (centres unmarked)	-14.8

Source: article PMC4336329 (PLoS ONE, 2015)
